In all, about 2,700 compounds went through this assay and about 160 (5.9%) showed an effect of 50% or more. The list shows a part of the results.
Molecular target: Nonstructural protein 3 (Zika virus) (UniProt A0A024AXB9)
[1] = PRVABC59, Concentration 15.0 uM, Number of replicates 1.0
[2] = PRVABC59, Concentration 50.0 uM, Number of replicates 1.0

UniProt A0A024AXB9, sequence (A0A024AXB9 as listed by the source): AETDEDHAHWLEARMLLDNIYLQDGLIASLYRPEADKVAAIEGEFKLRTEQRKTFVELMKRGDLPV

## Cc1cc(CO)c2cccc(Cc3ccccc3C(=O)N3CC[C@@H](O)C3)c2n1
PRVABC59, Concentration 49.95 uM, Number of replicates 2.0, Standard deviation 0.18876460771228748 %
  inhibition: -8.95%
PRVABC59, Concentration 99.9 uM, Number of replicates 2.0, Standard deviation 1.2164824655212059 %
  inhibition: -7.58%

## CN(C[C@H](O)c1ccc(O)cc1)C(=O)c1cc(Cl)ccc1NS(=O)(=O)c1ccc(Oc2ccccc2Cl)cc1
[1]
  inhibition: 6.47%

## C[C@@H](c1ccccc1)N(CC1CC1)C(=O)C1CCN(c2ccc(C=O)cc2)CC1
[2]
  inhibition: 24.9%

## O=C(NCc1noc(-c2ccco2)n1)c1cc(Cl)ccc1NS(=O)(=O)c1ccc(Oc2ccccc2Cl)cc1
[1]
  inhibition: 48.1%

## Cc1cc(CO)c2cccc(NC(=O)CC3CNC3)c2n1
PRVABC59, Concentration 49.95 uM, Number of replicates 2.0, Standard deviation 1.5957700474656553 %
  inhibition: -6.72%
PRVABC59, Concentration 99.9 uM, Number of replicates 2.0, Standard deviation 1.1039918524960535 %
  inhibition: -6.98%

## CC(C)N(C[C@H](O)COc1cccc2ccccc12)C(=O)C1CCN(c2ccc(C=O)cc2)CC1
[2]
  inhibition: 26.7%

## O=Cc1ccc(N2CCC(C(=O)Nc3c(F)cc(F)cc3Cl)CC2)cc1
[2]
  inhibition: 23.6%

## O=C1CC2(CCN(C(=O)c3cc(Cl)ccc3NS(=O)(=O)c3ccc(Oc4ccccc4Cl)cc3)CC2)CN1
[1]
  inhibition: -1.87%

## COc1cc(C(=O)NCc2ccccc2)nc(N2CCNCC2)n1
PRVABC59, Concentration 49.5 uM, Number of replicates 2.0, Standard deviation 2.737889624998604 %
  inhibition: -0.457%
PRVABC59, Concentration 99.01 uM, Number of replicates 2.0, Standard deviation 3.0534651647482876 %
  inhibition: 0.049%
PRVABC59, Concentration 198.0 uM, Number of replicates 2.0, Standard deviation 2.478899938297465 %
  inhibition: 0.696%

## O=C(NCc1ccc2c(c1)OCCO2)c1cc(Cl)ccc1NS(=O)(=O)c1ccc(Oc2ccccc2Cl)cc1
[1]
  inhibition: 24.8%

## O=C(c1cc(Cl)ccc1NS(=O)(=O)c1ccc(Oc2ccccc2Cl)cc1)N1CCN(Cc2ccc(Cl)nc2)CC1
[1]
  inhibition: 12.8%

## O=Cc1ccc(N2CCC(C(=O)NCCc3cc(Cl)cc(Cl)c3)CC2)cc1
[2]
  inhibition: 3.92%

## N#Cc1cnn(-c2ccc([N+](=O)[O-])cc2)c1NC(=O)c1cc(Cl)ccc1NS(=O)(=O)c1ccc(Oc2ccccc2Cl)cc1
[1]
  inhibition: 26.5%

## O=C(NCCN1CCc2ccccc21)c1cc(Cl)ccc1NS(=O)(=O)c1ccc(Oc2ccccc2Cl)cc1
[1]
  inhibition: 12.7%

## C[C@H]1c2cc(O)c(O)cc2CCN1C(=O)C1CCN(c2ccc(C=O)cc2)CC1
[2]
  inhibition: 35.9%

## O=Cc1ccc(N2CCC(C(=O)Nc3ncc(Br)nc3Cl)CC2)cc1
[2]
  inhibition: -2.78%

## O=Cc1ccc(N2CCC(C(=O)NC3(c4ccc(Cl)cc4)CC3)CC2)cc1
[2]
  inhibition: 17.9%

## [N-]=[N+]=NCCOCCOCCOCCNC(=O)c1cc(Cl)ccc1NS(=O)(=O)c1ccc(Oc2ccccc2Cl)cc1
[1]
  inhibition: -2.17%

## O=Cc1ccc(N2CCC(C(=O)Nc3cccc(OC(F)(F)F)c3)CC2)cc1
[2]
  inhibition: 23%

## CC(=O)Nc1ccc(C(=O)Nc2cccc(Cc3cccc4c(CO)cc(C)nc34)c2)cn1
PRVABC59, Concentration 49.95 uM, Number of replicates 2.0, Standard deviation 2.007257821672428 %
  inhibition: -6.17%
PRVABC59, Concentration 99.9 uM, Number of replicates 2.0, Standard deviation 0.8731569349497679 %
  inhibition: -4.81%

## CN1CCC(C#N)(C(=O)N2CC(NC(=O)c3ccc4[nH]c(N(C)C)nc4c3)C2)CC1
PRVABC59, Concentration 49.5 uM, Number of replicates 2.0, Standard deviation 2.468574044705993 %
  inhibition: -0.431%
PRVABC59, Concentration 99.01 uM, Number of replicates 2.0, Standard deviation 3.240163733946571 %
  inhibition: 0.727%
PRVABC59, Concentration 198.0 uM, Number of replicates 2.0, Standard deviation 3.3016858048192868 %
  inhibition: 2%

## O=Cc1ccc(N2CCC(C(=O)Nc3nc4c(Cl)cccc4s3)CC2)cc1
[2]
  inhibition: 24.6%

— ChEMBL document CHEMBL5606458, “ASAP - ZIKV NS2B-NS3 protease fluorescence single point” (2024)
